Drawing on PubChem BioAssay (NCATS), this text covers AC50 and z-score for 11 compounds.

The list shows a part of the results. The main result of the screen is listed elsewhere. These columns were measured beside it and carry no call. For some assays here: Most of these compounds were active or inconclusive in the main read-out, so they are no random draw. Potencies come from curve fits of mixed quality, noted in brackets.

The nature of test [1]: qHTS drug screen for cell cycle checkpoint inhibitors in PARPi-resistant BRCA-mutant ovarian cancer cell lines. (AID 1963452). The conditions noted are these: PEO1/OlaR viability, CellTiter-Glo luminescence, 96 h. In outline: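 PEO1, PEO4 and PEO1/OlaR ovarian cancer cells, 600 per well, exposed 96 h at 37C to a dilution series. Viability read by CellTiter-Glo luminescence, normalized to DMSO and empty wells; activity summarized as Z-AUC.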
(In qHTS, concentration-response curves come from the screen itself.)

A short description of test [2]: qHTS for identification of novel therapeutic agents for treatment of microphthalmiaassociated transcription factor (MiT) renal cell carcinoma (RCC) (AID 1963991). Conditions: CellTiter-Glo, 48 h; for z-score: stronger effect = lower value. In short, it runs like this: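 Three TFE3-fusion RCC lines (UOK109, UOK124, UOK145), 500 cells/well in complete medium, were treated with MIPE 4.0 compounds for 48 hours at 37 C. Viability was by CellTiter-Glo luminescence, normalized to DMSO (100%) and empty wells (0%); curves fitted over 11 concentrations.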

Where [3] appears, read: measured here: PEO1 parental viability.
The mark [4] stands for this setting: TFE3-RCC UOK109 viability, measured here: UOK109 Z-AUC.
Where [5] appears, read: TFE3-RCC viability, measured here: UOK124 Z-AUC.
Where [6] appears, read: TFE3-RCC viability, measured here: UOK124 cell viability.
Setting [7] is: TFE3-RCC viability, measured here: UOK145 Z-AUC.
Setting [8] is: TFE3-RCC viability, measured here: UOK145 cell viability.
Tags describe the fitted curve by direction and shape.

The AC50 is the concentration giving half of the maximal activity seen. For `COc1ccc(S(=O)(=O)Nc2cc(-c3c(O)ccc4ccccc34)c(O)c3ccccc23)cc1`, the AC50 in test [1] (setting [3]) is 1.95 µM [falling, full curve, poor fit]; in test [1] (measured here: PEO4 viability), 3.47 µM [falling, full curve]; in test [2] (setting [6]), 20.9 µM [falling, partial curve]; in test [2] (setting [8]), 26.4 µM [falling, single point]. The z-score is 0.234 in test [2] (setting [4]), -1.89 in test [2] (setting [5]) and 0.313 in test [2] (setting [7]).
On to `Nc1ccc(C(=O)c2cc3c(ccc4ccccc43)[nH]2)cc1`, for which the AC50 in test [1] (setting [3]) is 2.51 µM [falling, full curve]; in test [1] (measured here: PEO4 viability), 2.24 µM [falling, full curve]; in test [2] (setting [6]) it was 11.8 µM [falling, partial curve]; in test [2] (setting [8]), 6.62 µM [falling, full curve]. The z-score in test [2] (setting [4]) was -0.136; in test [2] (setting [5]) it was 0.258; in test [2] (setting [7]), -0.246.
Regarding `FC(F)c1nc2ccccc2n1-c1nc(N2CCOCC2)nc(N2CCOCC2)n1`, the concentration at half-maximal activity (AC50) in test [1] (setting [3]) was 0.616 µM [falling, partial curve]; in test [1] (measured here: PEO4 viability), 1.55 µM [falling, full curve]; in test [2] (setting [6]), 0.418 µM [falling, full curve]; in test [2] (setting [8]), 1.05 µM [falling, full curve]. In addition, the values for the z-score in test [2] (setting [4]), in test [2] (setting [5]) and in test [2] (setting [7]) were -1.64, -0.721 and -0.768, respectively.
For the compound `Cc1nc(N)sc1-c1ccnc(Nc2ccc(N3CCOCC3)cc2)n1`, the half-maximal activity concentration (AC50) in test [1] (setting [3]) is 15.5 µM [falling, partial curve]; in test [1] (measured here: PEO4 viability), 9.77 µM [falling, partial curve]; in test [2] (setting [6]), 14.8 µM [falling, partial curve]; in test [2] (setting [8]) it was 7.43 µM [falling, full curve]. The z-score was -0.782 in test [2] (setting [4]), -0.0442 in test [2] (setting [5]) and -0.808 in test [2] (setting [7]).
On to `COC(=O)Nc1ccc(-c2nc(N3CCOCC3)c3cnn(C4CCN(Cc5cccnc5)CC4)c3n2)cc1`, for which the AC50 in test [1] (setting [3]) was 6.16 µM [falling, partial curve]; in test [1] (measured here: PEO4 viability) it was 4.9 µM [falling, partial curve]; in test [2] (setting [6]), 5.9 µM [falling, partial curve]; in test [2] (setting [8]) it was 1.05 µM [falling, partial curve]. For the same compound, the z-score in test [2] (setting [4]) is -0.768; in test [2] (setting [5]), -0.382; in test [2] (setting [7]) it was -1.49.
Turning to `Cc1nc2ccc(CN(C)c3ccc(C(=O)N[C@@H](CCC(=O)O)C(=O)O)s3)cc2c(=O)[nH]1`, the half-maximal activity concentration (AC50) in test [1] (setting [3]) is 0.0389 µM [falling, full curve]; in test [1] (measured here: PEO4 viability), 0.0347 µM [falling, full curve, poor fit]; in test [2] (setting [6]), 0.0833 µM [falling, full curve]; in test [2] (setting [8]), 0.0743 µM [falling, full curve]. Further, the figures for the z-score in test [2] (setting [4]), in test [2] (setting [5]) and in test [2] (setting [7]) were 0.108, -1.7 and -1.19, respectively.
As for `Cc1ccc(NC(=O)c2ccc(CN3CCN(C)CC3)cc2)cc1Nc1nccc(-c2cccnc2)n1`, the half-maximal activity concentration (AC50) in test [1] (setting [3]) was 11 µM [falling, partial curve, poor fit]; in test [1] (measured here: PEO4 viability), 15.5 µM [falling, single point]; in test [2] (setting [6]), 33.2 µM [falling, partial curve, poor fit]; in test [2] (setting [8]) it was 37.2 µM [falling, single point]. In addition, the figures for the z-score in test [2] (setting [4]), in test [2] (setting [5]) and in test [2] (setting [7]) were -0.27, 0.286 and -0.398, respectively.
Regarding `CN(C)Cc1ccc(-c2nc3cccc4c3n2CCNC4=O)cc1`, the concentration at half-maximal activity (AC50) was 5.49 µM [falling, partial curve, poor fit] in test [1] (setting [3]); 19.5 µM [falling, partial curve, poor fit] in test [1] (measured here: PEO4 viability); 37.2 µM [falling, single point] in test [2] (setting [6]); 20.9 µM [falling, partial curve] in test [2] (setting [8]). Also, the z-score is -1.01 in test [2] (setting [4]), 1.03 in test [2] (setting [5]) and -0.192 in test [2] (setting [7]).
Regarding `COCCOC(=O)C1=C(C)NC2=C(C(=O)CC(c3ccccc3OC)C2)C1c1cccc(O)c1` (configuration not stated), the AC50 was 19.5 µM [falling, single point] in test [1] (setting [3]); 1.23 µM [falling, full curve, poor fit] in test [1] (measured here: PEO4 viability); 18.7 µM [falling, partial curve] in test [2] (setting [6]); 20.9 µM [falling, single point] in test [2] (setting [8]). For the same compound, the z-score in test [2] (setting [4]) was -1.07; in test [2] (setting [5]), 0.108; in test [2] (setting [7]) it was -0.174.
For `NS(=O)(=O)c1cccc2c1C(=O)c1cccc(O)c1C2=O`, the AC50 was 2.75 µM [falling, full curve] in test [1] (setting [3]); 0.977 µM [falling, full curve] in test [1] (measured here: PEO4 viability); 0.743 µM [falling, full curve] in test [2] (setting [6]); 1.32 µM [falling, full curve] in test [2] (setting [8]). The results for the z-score in test [2] (setting [4]), in test [2] (setting [5]) and in test [2] (setting [7]) were -0.738, -2.15 and -1.32, respectively.
Regarding `CC(C)[C@H](CO)Nc1nc(Nc2cccc(Cl)c2)c2ncn(C(C)C)c2n1`, the AC50 in test [1] (setting [3]) was 9.77 µM [falling, partial curve]; in test [1] (measured here: PEO4 viability) it was 11 µM [falling, partial curve]; in test [2] (setting [6]), 14.8 µM [falling, partial curve]; in test [2] (setting [8]), 14.8 µM [falling, partial curve]. The figures for the z-score in test [2] (setting [4]), in test [2] (setting [5]) and in test [2] (setting [7]) were -0.619, 0.0947 and -1.14, respectively.
